The values below come from the RNAGym collection of RNA variant scans (doi:10.7554/elife.90254).

B1: LINE1-mini (parent)
chain: GGCAGAGCUCAACACAGCGUGGCAAAGUGGCUGUGGCUAGACUGCC

Read counts are not given, so values of variants with three or more changes are uncertain.

Variants of B1 are the subject of the data set. As to the kind of experiment: self-cleavage, relative activity (ratio to wild type); higher = more cleavage; in vitro, sequencing; the parent is a self-cleaving ribozyme.
Take A4C A11U A24U: the self-cleavage came to 0.03.

In the case of C3U C8U C13A G35U, the self-cleavage was determined as 0.53.

With C3U U20G G22U G36U, the self-cleavage was 0.14.

Regarding A4C A25G A39U C42A, the self-cleavage was determined as 0.72.

As to C3U C8G U20A, the self-cleavage was found to be 0.13.

Turning to C3U C15U C23G G29A G35U, the self-cleavage stood at 0.23.

C3U G5A C8G G19C G40U: the self-cleavage came out at 0.08.

With C3U C8U G19C U20G, the self-cleavage worked out at 0.06.

C3U G7C G27U C31A G33A: the self-cleavage is 0.02.

In the case of A4C C18A C31A G33U, the self-cleavage is 0.02.

With A4C C8U G17A C23U C37A, the self-cleavage came to 0.74.

A4C A24G G30U: the self-cleavage is 0.04.

A4C C10U A16G U28C G33U: the self-cleavage is 0.01.

On to C3U C8G C10A C23G G33C C42U, for which the self-cleavage was determined as 0.02.

A4C C13U G27U U32G: the self-cleavage turned out to be 0.06.

Consider C3U U9A G29A C42U, for which the self-cleavage was 0.78.

With C3U C15A C37A, the self-cleavage worked out at 0.18.

Regarding C3U U34A G36U C42G, the self-cleavage was determined as 0.15.

For C3U A41U U43G, the self-cleavage came to 0.09.

As to C3U G40A G44A, the self-cleavage is 0.43.

As to C3U G30C U34C, the self-cleavage was 0.08.

Consider A4C C10A G21A A25C, for which the self-cleavage turned out to be 0.03.

C3U U32C C42U: the self-cleavage was found to be 0.05.

As for C3U G7U C8A U9G C10A, the self-cleavage worked out at 0.04.

For the variant C3U C8U G27A U34A G35C, the self-cleavage came to 0.55.

Turning to C3U G5C C8G C23U, the self-cleavage came to 0.19.

On to C3U G17A U28G C31A A39C, for which the self-cleavage is 0.01.

For the variant C3U C31G A41C, the self-cleavage was 0.49.

Turning to C3U C8A G19U A24C G33C, the self-cleavage stood at 0.43.

For the variant A4C G5C U28G C45G, the self-cleavage stood at 0.

Take A4C G17U G35U: the self-cleavage stood at 0.04.

For A4C G5A C10U A11C, the self-cleavage amounted to 0.02.

As for C3U C13G G21U G27U G33U U38C, the self-cleavage stood at 0.06.

As for C3U C18A U32C U43A, the self-cleavage is 0.

In the case of C3U C10U G22A, the self-cleavage is 0.1.

A4C C10U G27U: the self-cleavage came to 0.32.

For the variant C3U G22A U32C G33U G35U G44A C45A, the self-cleavage stood at 0.03.

For C3U U20A A25U C42U, the self-cleavage is 0.03.

Consider C3U C15G A16U, for which the self-cleavage turned out to be 0.01.

As for C3U C8G G33U G40A C45U, the self-cleavage came out at 0.17.

On to A4C G19C A24U A25U G29C U32A, for which the self-cleavage amounted to 0.02.

Take A4C G5C C18U: the self-cleavage came to 0.

As to C3U C13A A24G C37A, the self-cleavage stood at 0.14.

Turning to A4C A6G G30C U32A, the self-cleavage was found to be 0.03.

For the variant A4C G7C C10A A14G, the self-cleavage worked out at 0.06.

With A4C G21A A39C, the self-cleavage came to 0.06.

In the case of C3U G5C U38G, the self-cleavage stood at 0.03.

Turning to A4C G5U A6U G40U, the self-cleavage stood at 0.04.

Turning to C3U G19C C23A G44C, the self-cleavage worked out at 0.24.

Turning to C3U U20C A26U, the self-cleavage is 0.13.

A4C A12C C31G U38A: the self-cleavage is 0.

For A4C C42A G44C, the self-cleavage came to 0.19.

For A4C A12U G30C C31U G33C C42A, the self-cleavage was 0.01.

On to A4C G5U A11C C13A G33A G40C U43G, for which the self-cleavage is 0.

Take C3U C10A A14C G21A G36U: the self-cleavage is 0.01.

For C3U G7U G22U C23A C31G, the self-cleavage came to 0.02.

Take C3U C23U U32C: the self-cleavage was 0.07.

As to A4C A11G A14C G17A G19U A26G, the self-cleavage was 0.01.

For C3U G7U C18G, the self-cleavage was found to be 0.03.

With A4C G7C A39G C46G, the self-cleavage was determined as 0.05.

With A4C G5A C10G C15A, the self-cleavage is 0.02.

For C3U G5A A6U C8G, the self-cleavage came out at 0.06.

For C3U C10U A11U A24U, the self-cleavage amounted to 0.05.

Turning to C3U G5U G27C C37G G40A, the self-cleavage came to 0.13.

Regarding A4C C15U C18G, the self-cleavage was 0.06.

In the case of C3U C18U U28A G33A, the self-cleavage came out at 0.12.

As for A4C A24U U32C G35U, the self-cleavage came to 0.29.

As for C3U U38C C45U, the self-cleavage was determined as 0.08.

Take A4C G19U A25C G29A C37A G44C: the self-cleavage was 0.05.

In the case of C3U G17A C23A A26U G33U, the self-cleavage was 0.02.

As for C3U G27U C42U, the self-cleavage was found to be 0.03.

With C3U C15U U43A, the self-cleavage came out at 0.02.

In the case of C3U G29A G36C, the self-cleavage stood at 0.31.

Regarding C3U U28G C31A C37G, the self-cleavage stood at 0.09.

For the variant A4C G5U C15A G22A C42G, the self-cleavage came out at 0.16.

Take A4C A11U C23G C37U: the self-cleavage worked out at 0.01.

Turning to C3U C10G G40C, the self-cleavage came out at 0.02.

A4C C8A C18A U20C G29C: the self-cleavage worked out at 0.09.

Regarding A4C A6G G22A, the self-cleavage is 0.04.

Turning to C3U G7U C10G G19A U20C G21U C37U C42U, the self-cleavage was determined as 0.01.

Consider A4C G7C C15G C37A, for which the self-cleavage was 0.03.

For the variant A4C G7U G36U C37A, the self-cleavage was 0.18.

As for C3U C10A G44C, the self-cleavage is 0.02.

Regarding A4C C13U C37G, the self-cleavage was determined as 0.19.

For C3U G27U G36C A39C A41G, the self-cleavage was determined as 0.38.

Consider A4C G5A C13A A26G U32C, for which the self-cleavage was 0.04.

Consider C3U G5C A16C G40U, for which the self-cleavage is 0.03.

As to C3U G7A G17U C18A A24U, the self-cleavage worked out at 0.28.

For the variant C3U G17A A24G G30A C37A C46A, the self-cleavage came to 0.1.

As for A4C A16C G35C G44A C46A, the self-cleavage was found to be 0.03.

As to C3U U9A C42A, the self-cleavage amounted to 0.12.

For the variant C3U A26U C42U, the self-cleavage is 0.06.

As for C3U C15A G30U C42G C45U, the self-cleavage is 0.08.

Take C3U G7A C15U G27C G29U G40U: the self-cleavage was determined as 0.17.

Consider A4C C13U G29C G35A C45A, for which the self-cleavage is 0.35.

Consider A4C A11U U38A C42A, for which the self-cleavage turned out to be 0.02.

On to A4C G7C C15G C18U G21A G40A, for which the self-cleavage was found to be 0.13.

As to C3U G7A U43C, the self-cleavage is 0.07.

On to C3U G30A G33A, for which the self-cleavage was 0.1.

In the case of C3U G21C A25G U28A U43A, the self-cleavage is 0.

As for C3U G7A C8A G19A U34A, the self-cleavage was determined as 0.08.

With C3U G21C C23G C42A C46U, the self-cleavage was 0.08.

For A4C C10U C18A G27U G29U U32C G35U, the self-cleavage is 0.04.

Take C3U C15U C31G U34C: the self-cleavage is 0.06.

Consider C3U A26U G40U, for which the self-cleavage worked out at 0.02.

For the variant C3U C10G U20G A26G C31U, the self-cleavage was determined as 0.03.

As to A4C C10A G44U, the self-cleavage was 0.

Regarding C3U U9A C37A, the self-cleavage is 0.4.

For C3U G19U A39G C46A, the self-cleavage is 0.06.

For the variant C3U U9C A11G A24G, the self-cleavage amounted to 0.02.

Regarding C3U C8U A11U G17U G21C G44U, the self-cleavage stood at 0.02.

C3U C13G A14G U20A U34C: the self-cleavage came out at 0.02.

In the case of C3U G5C U9C A11C G22C A26U C37A, the self-cleavage was determined as 0.01.

On to C3U G5U C18U G29C U32G, for which the self-cleavage was 0.02.

Turning to A4C A6C U9A G21A G40C, the self-cleavage amounted to 0.17.

Take A4C C23U A25G C31U: the self-cleavage worked out at 0.08.

Turning to A4C C10A U34G C42A, the self-cleavage came to 0.01.

For the variant C3U G33U C37A, the self-cleavage worked out at 0.21.

On to C3U C10U G36C G40C, for which the self-cleavage turned out to be 0.04.

Regarding A4C G7C U32A C42U, the self-cleavage came out at 0.12.

Regarding C3U C13A C31A G40U, the self-cleavage was 0.2.

In the case of A4C A16U A26C G44C, the self-cleavage was determined as 0.

In the case of A4C A6C C13U C15A G30A, the self-cleavage was determined as 0.06.

On to C3U G5A A14U G21U, for which the self-cleavage turned out to be 0.19.

Turning to C3U U9A C10G C45G, the self-cleavage came to 0.03.

Take A4C G5A G19A G35U G40A: the self-cleavage was 0.19.

On to A4C C23G G44U, for which the self-cleavage is 0.09.

Turning to A4C C8U C42G, the self-cleavage was 0.3.

For the variant A4C C8A G17U A24C G35U, the self-cleavage turned out to be 0.05.

Regarding C3U C10A C31G, the self-cleavage was determined as 0.02.

Consider A4C C13G C45A, for which the self-cleavage is 0.11.

On to C3U C8U A26C G40U, for which the self-cleavage came out at 0.18.

For A4C C8G C31G G44A, the self-cleavage worked out at 0.02.

Consider A4C A16G U20G U38C C45G, for which the self-cleavage came out at 0.

Consider A4C G5C U32A A41C C45A, for which the self-cleavage was 0.06.

Take A4C C15U G17A U32G: the self-cleavage is 0.2.

C3U G5A U9G A12G G35U A41U: the self-cleavage is 0.01.

Regarding A4C A11U A16C G19A C23A G35C, the self-cleavage amounted to 0.02.

Consider A4C C8U C15U G33U C37A, for which the self-cleavage came to 0.1.

For the variant A4C C8G A11U G21A, the self-cleavage came out at 0.01.

C3U G21U G29U: the self-cleavage is 0.86.

For the variant C3U C37U C45U, the self-cleavage worked out at 0.05.

Consider C3U G30A C31G A41G G44A, for which the self-cleavage was 0.11.

With A4C A11G A26U U28G A41C C46G, the self-cleavage was found to be 0.02.

A4C A12G G19U: the self-cleavage stood at 0.

A4C A24U A41C: the self-cleavage was determined as 0.12.

C3U G7U U20G U34C A39U U43C: the self-cleavage stood at 0.02.

Regarding C3U C13A C18U C46A, the self-cleavage came out at 0.1.

In the case of C3U G5A U38C, the self-cleavage turned out to be 0.1.

Turning to C3U U38G A41C C45U, the self-cleavage came out at 0.03.

C3U C13U U38C G40C: the self-cleavage is 0.04.

With A4C G19A A24U G33U C46U, the self-cleavage is 0.07.

A4C A14U G27U G29A: the self-cleavage came out at 0.29.

Turning to C3U C8A G27C, the self-cleavage is 0.8.

Consider A4C C10U C23U A24U G33U, for which the self-cleavage was 0.02.

Take A4C C10A A41U G44C C46G: the self-cleavage is 0.01.

Turning to A4C G7C U28A U32A G33U U38C, the self-cleavage came out at 0.02.

Regarding A4C G19A U38G A41U U43A, the self-cleavage was determined as 0.01.

C3U G5A G35U G40A: the self-cleavage worked out at 0.04.

As to C3U U20A G35U C45U, the self-cleavage amounted to 0.08.

Take A4C A39C G44A: the self-cleavage came to 0.01.

Regarding C3U U28G G35A, the self-cleavage stood at 0.03.

For C3U C8A G27U U32C, the self-cleavage came out at 0.35.

A4C C8A C10G A16C: the self-cleavage worked out at 0.02.

Turning to C3U C8G U32G, the self-cleavage came out at 0.02.

Consider C3U C18G C31U U34A G35C G44C, for which the self-cleavage came out at 0.02.

C3U C13A G21A G44U: the self-cleavage was 0.17.
